B1: CPEB3 Ribozyme (parent)
chain: UAACAGGGGGCCACAGCAGAAGCGUUCACGUCGCAGCCCCUGUCAGAUUCUGGUGAAUCUGCGAAUUCUGCUGUAUAUCUC

The source gives no read counts; variants with many changes may rest on few reads.

This data set covers variants of B1. Nature of the data set: self-cleavage, relative activity (ratio to wild type); higher = more cleavage; in vitro, sequencing. Summed up: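 Barcoded CPEB3 ribozyme mutants, produced by rounds of error-prone PCR, self-cleaved while being transcribed with T7 RNA polymerase for 5 hours at 37°C and during a subsequent 15 min DNase I step before EDTA was added. Sequencing of template-switched cDNA on Illumina gave cleaved and total reads, and DNA sequencing assigned barcodes to variants. Each variant's relative activity is its cleaved/total read fraction divided by the unmutated ribozyme's fraction, averaged across three batches. A variant needed a minimum of 5 reads.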
With G22A U41G A47G U54C, the self-cleavage amounted to 0.12.
Under C23U C29A U60C U67C stands 0.13; under A21U A45U U54C U66C U74C, 0.15; under C23G A45C U49C A56U U66C, 0.07.
Under G22U A28G A56G U72A stands 0.1; under G22U U51C A64G U72C, 0.17; under A21U A57G A64U U78C, 0.12.
Under C23G U41A U43C C79G U80A stands 0.06; under G22C U41C U76A, 0.09; under A21U U25C U41C A57C, 0.11.
In the case of C23A A35U A65G U78A, the self-cleavage was 0.01.
Under C23G U43C A56U U69C stands 0.11.
Under C23G A47U G52A stands 0.15.
Under C23U A45U U74A stands 0.24.
Turning to C23U A28G U31C U58C, the self-cleavage came out at 0.04.
Under G22U U41C U54C stands 0.09.
Under A21U G30A U41C U51C U67G stands 0.1; under C23G U26A C27A U60A, 0.1; under C23U U43A G53A U72A, 0.3.
As for C23U C68A U74A U76C, the self-cleavage is 0.04.
Turning to A21U U51C A64U U69C, the self-cleavage is 0.08.
For the variant A21U C39A A56G U72C, the self-cleavage worked out at 0.07.
Under A21U C44G G55A stands 0.13; under C23U U26C A35G G55A A56G U72C, 0.18.
As to A21U U54C A65G U66C, the self-cleavage came out at 0.14.
Under A21U U31C U66C stands 0.15.
Under G22A C38A G42A U51C stands 0.08.
Under C23U A45U A64G U69C U72C stands 0.08; under C23A G52A U69A, 0.16; under A21U A56U U69C, 0.09.
As to C23A A45G G52A U67C, the self-cleavage amounted to 0.05.
C23A U26C U31A U48C: the self-cleavage is 0.05.
Under A21G U58C C59A A77U stands 0.11; under G22A U41A A57C, 0.08.
Under C23U A28G A35C stands 0.11.
Under A21U U66C U69A stands 0.15; under C23U A35G A45U U54C A64G U69C U80C, 0.11; under C23A G36U U69C, 0.11.
As for A21U U41C U60C U72A, the self-cleavage is 0.13.
Under G22U A28U U67G stands 0.1; under A21U U25C G55A G70A, 0.43.
Turning to C23G U31A A35U U78C, the self-cleavage came to 0.11.
Under A21U C44G A56G stands 0.05.
In the case of A21U U41C A57U U58A U72C C81G, the self-cleavage was 0.05.
As for A21U G30U U74C U80C, the self-cleavage worked out at 0.5.
As to C23U U25C U67G, the self-cleavage is 0.08.
Under A21G U69A G70U stands 0.12; under C23U C32U A57G G73A U78C, 0.1.
In the case of C23U U31A U49C, the self-cleavage was 0.12.
Under A21U A47U A64G stands 0.03; under A21U U31A A35G U43C U49A, 0.05; under G22A A56G A64G, 0.3.
As to G22A U58C A65U A75G, the self-cleavage amounted to 0.07.
Under G22A U41C U51C U78A stands 0.09; under G22U A45G C68A, 0.14.
Under C23U A28G A57G U80C stands 0.2; under C23A A64G U78A, 0.2; under A21G U67C U78C, 0.11.
Under C23U C38G U41A A57G stands 0.12; under G22C A35U C37G A45G A77U, 0.03; under A21U C32U U54A U66C C81U, 0.09.
Take A21U A28U G33A A45U U60G U69C: the self-cleavage is 0.03.
Under G22A U54C U72C A77U stands 0.11; under A21U C32U U43C, 0.1; under G22U G42C U43C G53C U69A U72C U78C, 0.05.
In the case of C23U A47U A56U, the self-cleavage stood at 0.16.
Under C23A U26A A64G U78A stands 0.09.
Under C23G A28G U54C G73A U76C stands 0.06; under C23U G30A U54C U69G, 0.06; under A21G U66C U72C, 1.24.
Under C23A U25C A35G U78C stands 0.06; under G22A U26C U41C U43A U49C U60G, 0.15.
Regarding A21U U26C U74C, the self-cleavage worked out at 0.17.
Under C23G A45G U60C U74G stands 0.09; under C23A A35C U72C A77G, 0.23; under G22U U51C G61A U69A, 0.08.
Under C23U U26C U43C stands 0.1; under A21U A28G A45G, 0.03.
Under A21U U26C A35G stands 0; under A21U U26A U51C A64G, 0.12; under C23U A64G U66C, 0.09.
With A21U C37A G52A A77U, the self-cleavage is 0.23.
Under A21U A45G A57G U60A A64G U66C stands 0.03.
